The text below walks through data of PMC4081100.

Common to all, as to assay: universal protein binding microarray (PBM)
What all share (details): transcription factors of Arabidopsis thaliana; high values mean tight binding; most listed sequences are background and not binding sites; double strand, one strand shown

One assay concerns the target T1, GST-ANAC019 NAC domain (UniProt Q9C932).
T1 sequence: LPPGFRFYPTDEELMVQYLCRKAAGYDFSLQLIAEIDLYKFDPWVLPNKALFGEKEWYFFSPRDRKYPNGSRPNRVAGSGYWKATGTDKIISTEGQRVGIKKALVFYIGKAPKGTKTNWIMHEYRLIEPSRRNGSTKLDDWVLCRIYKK

The next assay concerns the target T2, GST-ANAC055(1-171) (UniProt Q9LDY8).
T2 sequence: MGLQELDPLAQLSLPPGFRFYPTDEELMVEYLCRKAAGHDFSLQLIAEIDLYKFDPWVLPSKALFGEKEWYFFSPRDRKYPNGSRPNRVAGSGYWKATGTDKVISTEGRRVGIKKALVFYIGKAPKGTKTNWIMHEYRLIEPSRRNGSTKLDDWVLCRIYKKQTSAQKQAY

The target in another assay is T3, GST-ATAF1 NAC domain (UniProt Q39013).
T3 sequence: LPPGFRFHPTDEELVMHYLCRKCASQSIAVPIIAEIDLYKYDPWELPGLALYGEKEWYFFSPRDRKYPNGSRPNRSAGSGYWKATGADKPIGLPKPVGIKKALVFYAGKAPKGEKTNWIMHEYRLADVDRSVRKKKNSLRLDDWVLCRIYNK

For assay [1], the target named is T4, GST-ANAC092(1-285) full length (UniProt Q9FKA0).
T4 sequence: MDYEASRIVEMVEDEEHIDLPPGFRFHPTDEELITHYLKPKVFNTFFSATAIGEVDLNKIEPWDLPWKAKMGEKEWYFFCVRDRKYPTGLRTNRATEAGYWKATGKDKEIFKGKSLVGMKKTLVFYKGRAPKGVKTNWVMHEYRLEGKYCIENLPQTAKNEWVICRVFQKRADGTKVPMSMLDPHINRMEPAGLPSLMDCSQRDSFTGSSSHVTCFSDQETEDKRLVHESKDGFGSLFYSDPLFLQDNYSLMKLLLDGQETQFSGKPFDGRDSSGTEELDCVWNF

For another assay, the target named is T5, GST-NAP(1-166) (UniProt O49255).
T5 sequence: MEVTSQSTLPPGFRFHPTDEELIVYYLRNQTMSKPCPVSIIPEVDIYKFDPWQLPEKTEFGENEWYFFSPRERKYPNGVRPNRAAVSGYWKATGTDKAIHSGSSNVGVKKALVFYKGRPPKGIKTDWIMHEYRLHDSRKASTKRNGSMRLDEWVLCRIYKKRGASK

In the next assay the target is T6, GST-NST2(1-184) (UniProt Q9M274).
T6 sequence: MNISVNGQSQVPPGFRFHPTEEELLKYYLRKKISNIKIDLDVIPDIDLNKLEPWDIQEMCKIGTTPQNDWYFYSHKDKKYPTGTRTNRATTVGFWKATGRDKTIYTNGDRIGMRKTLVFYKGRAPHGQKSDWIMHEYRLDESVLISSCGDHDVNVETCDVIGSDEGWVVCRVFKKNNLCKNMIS

A further assay deals with T7, GST-SND1(1-203) (UniProt Q9LPI7).
T7 sequence: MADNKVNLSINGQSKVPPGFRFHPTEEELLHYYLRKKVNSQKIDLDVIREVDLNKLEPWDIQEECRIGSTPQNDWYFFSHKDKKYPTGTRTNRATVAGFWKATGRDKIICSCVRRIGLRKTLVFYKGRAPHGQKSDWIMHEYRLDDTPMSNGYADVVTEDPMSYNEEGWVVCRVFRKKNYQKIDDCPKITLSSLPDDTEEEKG

The next assay concerns the target T8, GST-VND7 NAC domain (UniProt Q9C8W9).
T8 sequence: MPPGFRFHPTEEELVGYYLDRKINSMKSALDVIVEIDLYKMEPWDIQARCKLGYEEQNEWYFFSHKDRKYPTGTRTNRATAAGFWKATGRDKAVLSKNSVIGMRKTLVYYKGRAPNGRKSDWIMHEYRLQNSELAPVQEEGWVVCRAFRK

Assay [2] addresses T9, GST-VOZ2 (Arabidopsis thaliana) (UniProt Q9SLB9).
T9 sequence: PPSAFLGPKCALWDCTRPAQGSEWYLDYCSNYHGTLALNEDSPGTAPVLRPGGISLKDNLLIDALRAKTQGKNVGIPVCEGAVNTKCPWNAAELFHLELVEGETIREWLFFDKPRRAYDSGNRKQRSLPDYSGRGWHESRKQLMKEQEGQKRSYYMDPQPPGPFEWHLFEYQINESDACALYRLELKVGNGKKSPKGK

The next assay concerns the target GST-WRKY1(266-371) (UniProt Q9SI37).
The next assay concerns the target T10, GST-ANAC092(1-176) (UniProt Q9FKA0).
T10 sequence: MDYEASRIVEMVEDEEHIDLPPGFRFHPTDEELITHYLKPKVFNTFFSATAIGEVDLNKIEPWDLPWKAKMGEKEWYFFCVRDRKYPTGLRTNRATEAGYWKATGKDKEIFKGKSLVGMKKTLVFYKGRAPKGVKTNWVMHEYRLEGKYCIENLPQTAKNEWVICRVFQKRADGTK

In another assay the target is GST-NTL6(1-168) (UniProt Q9SCK6).
For another assay, the target named is T11, GST-NTL8 NAC domain (UniProt Q9XIN7).
T11 sequence: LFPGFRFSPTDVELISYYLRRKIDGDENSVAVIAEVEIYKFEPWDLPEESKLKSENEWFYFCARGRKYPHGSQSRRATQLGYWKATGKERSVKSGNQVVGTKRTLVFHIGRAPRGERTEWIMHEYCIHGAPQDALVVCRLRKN

This is a selection; strong and weak results do not stand in their true shares. For some assays here: At the low end of the ranking the order means little. This is one part of the list. For some assays here: The exact form of the protein is not confirmed.

UniProt Q9SCK6, sequence (Q9SCK6 1-168): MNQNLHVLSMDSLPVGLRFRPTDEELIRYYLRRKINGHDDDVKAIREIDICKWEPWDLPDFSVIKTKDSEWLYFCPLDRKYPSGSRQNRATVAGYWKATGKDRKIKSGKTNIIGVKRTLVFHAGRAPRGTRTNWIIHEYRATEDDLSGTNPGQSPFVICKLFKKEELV
UniProt Q9SI37, sequence (Q9SI37 266-371): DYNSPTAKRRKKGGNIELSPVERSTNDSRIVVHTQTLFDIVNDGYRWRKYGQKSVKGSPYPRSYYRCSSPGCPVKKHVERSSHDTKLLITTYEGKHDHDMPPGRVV

In the case of AGGGTAAT, the binding signal came out at 0.116 E-score in the assay with GST-ANAC019 NAC domain; 0.17 E-score with GST-ANAC055(1-171); 0.114 E-score in the assay with GST-ATAF1 NAC domain; 0.108 E-score in [1]; 0.0149 E-score with GST-NAP(1-166); 0.0716 E-score with GST-NST2(1-184). Also, the binding signal was 0.0326 E-score in the assay with GST-SND1(1-203), 0.0425 E-score with GST-VND7 NAC domain, 0.0602 E-score in assay [2] and -0.0594 E-score with GST-WRKY1(266-371).

Consider AGAAAGTC, for which the binding signal was -0.00235 E-score in the assay with GST-ANAC092(1-176); -0.00031 E-score with GST-NTL6(1-168); 0.103 E-score with GST-ATAF1 NAC domain; 0.00409 E-score in assay [1]; -0.0145 E-score with GST-NAP(1-166); -0.0367 E-score with GST-NST2(1-184). The binding signal is 0.0673 E-score in the assay with GST-NTL8 NAC domain, -0.0376 E-score with GST-SND1(1-203), 0.0428 E-score with GST-VND7 NAC domain and -0.248 E-score in assay [2].

Regarding TAGGTCAA, the binding signal with GST-ANAC092(1-176) is -0.047 E-score; with GST-NTL6(1-168), -0.0258 E-score; with GST-ANAC019 NAC domain, 0.0197 E-score; in the assay with GST-ANAC055(1-171), 0.077 E-score; in assay [1], -0.0154 E-score; with GST-NAP(1-166) it was -0.109 E-score. Further, the binding signal with GST-NST2(1-184) was -0.0594 E-score; with GST-NTL8 NAC domain it was -0.0182 E-score; in the assay with GST-SND1(1-203) it was -0.0812 E-score; in the assay with GST-VND7 NAC domain, -0.0159 E-score; in assay [2], 0.0435 E-score.

On to TAGTCAAA, for which the binding signal was -0.102 E-score with GST-ANAC092(1-176); -0.112 E-score in the assay with GST-NTL6(1-168); -0.0285 E-score with GST-ANAC019 NAC domain; 0.0255 E-score in assay [1]; -0.0307 E-score with GST-NAP(1-166); -0.0388 E-score in the assay with GST-NST2(1-184). Also, the binding signal in the assay with GST-NTL8 NAC domain was 0.0243 E-score; with GST-SND1(1-203) it was -0.0706 E-score; with GST-VND7 NAC domain, 0.049 E-score; in [2] it was -0.00959 E-score.

As for GTTAAGGA, the binding signal with GST-NAP(1-166) came to 0.0155 E-score; with GST-SND1(1-203) it was 0.276 E-score; with GST-VND7 NAC domain it was 0.0488 E-score; in assay [2], 0.012 E-score.

Regarding AAGGGAAA, the binding signal with GST-ANAC019 NAC domain was 0.045 E-score; in the assay with GST-ANAC055(1-171), 0.047 E-score; with GST-NAP(1-166), -0.0119 E-score; in the assay with GST-NST2(1-184) it was -0.0345 E-score; with GST-SND1(1-203), 0.117 E-score; with GST-VND7 NAC domain, 0.0885 E-score. The figures for the binding signal (in assay [2]; in the assay with GST-WRKY1(266-371)) were 0.0974 E-score and -0.11 E-score, respectively.

Consider CGTCAACA, for which the binding signal in the assay with GST-ANAC019 NAC domain was 0.0912 E-score; in assay [1], 0.196 E-score; in the assay with GST-NAP(1-166), 0.116 E-score; with GST-NTL8 NAC domain, -0.0783 E-score; with GST-SND1(1-203) it was 0.181 E-score; with GST-VND7 NAC domain, 0.0179 E-score. In assay [2], this sequence had a binding signal of 0.145 E-score.

As for TAGTCAGA, the binding signal is -0.0794 E-score with GST-ANAC092(1-176); -0.0844 E-score with GST-NTL6(1-168); 0.0162 E-score with GST-ANAC019 NAC domain; 0.0265 E-score in the assay with GST-ANAC055(1-171); -0.0943 E-score in [1]; 0.0312 E-score with GST-NAP(1-166). Also, the binding signal with GST-NST2(1-184) was -0.0214 E-score; with GST-NTL8 NAC domain, 0.0192 E-score; with GST-SND1(1-203), -0.0311 E-score; in the assay with GST-VND7 NAC domain, -0.0395 E-score; in assay [2], -0.214 E-score.
